Measured values as given in ChEMBL document CHEMBL4888484, “Replenishing the malaria drug discovery pipeline: Screening and hit evaluation of the MMV Hit Generation Library 1 (HGL1) against asexual blood stage Plasmodium falciparum ,using a nano luciferase reporter read-out” (2022).
Hit rate of the full screen: of about 150,000 compounds, about 540 (0.36%) showed an effect of 50% or more. Some of the results follow.

tested on: Plasmodium falciparum; test: Primary screen in NF54 nanoGlo assay, in single point, at 2uM, 72h; a lower Z score goes with more inhibition; assay type: functional, Erythrocyte; settings: timepoint 72 hour

SMILES	% Inhibition	Z score
Cc1ccc(C)n1CCC(=O)NC[C@@H]1CCCN2CCCC[C@H]12	-7%	0.85
COCCn1c(N)c(N(CCCOc2ccccc2)Cc2ccccc2)c(=O)[nH]c1=O	-10%	2
CCOC(=O)C[C@](C)(NCCC1OCCCO1)c1ccccc1	2%	-0.34
O=C(Cn1ccnc1-c1ccnc(N2CCCC2)c1)NC1CCCCC1	-6%	0.9
COC(C(=O)N(CC1CCCO1)c1ccc(Br)cc1)C1CCOC1 (stereo not given)	-11%	2.15
Cn1cc(C#N)c(NS(=O)(=O)CC2CCCC2)n1	-8%	1.59
Cc1cnn(CCc2nc(CC(C)C)nn2C(C)C)c1	2%	-0.4
Cc1c(C(=O)Nc2nc3c(s2)Cc2ccccc2-3)ccc2cncn12	-21%	2.57
Cc1cc(-c2cc(NC(=O)COc3cccc(C)c3C)n([C@H]3CCS(=O)(=O)C3)n2)ccc1OC(C)C	6%	-0.85
CN1[C@@H]2CCN(C(=O)c3cc(F)ccc3F)C[C@@]2(C(=O)N2CCCC2)CCS1(=O)=O	-14%	1.95
Cc1nc(C)c(CNC(=O)c2c(O)cccc2O)s1	-14%	1.91
CCn1nc(C)c(-c2c[nH]c([C@H]3CC(=O)N(C4CCCC4)C3)n2)c1C	-9%	1.17
Cc1nnc(CN2CCCC2C2CCCC2O)s1 (stereo not given)	-8%	1.24
COc1ccc(NC(=O)Cn2nc(Nc3ccccc3)c(S(=O)(=O)c3ccccc3)c2N)cc1OC	-10%	1.24
Cc1ccsc1CNC(=O)[C@H](C)NC(N)=O	-9%	1.81
COC[C@H]1CCN(c2cncc(Br)c2)C1	-3%	0.35
COc1ccccc1C1CN(C(=O)c2cccc(Cl)c2)CC1C(=O)NC1CC1 (stereo not given)	-12%	2.08
Cc1nc[nH]c1C(=O)N1CCN(CC(C)C)[C@@H]2CS(=O)(=O)C[C@@H]21	-10%	1.47
CCCc1cnc(C)nc1N1CCC[C@H](CNC(=O)c2cc(C)cc(F)c2)C1	5%	-0.55
Cn1nc(-c2ccccn2)cc1CNC(=O)c1cccs1	-15%	1.79
CC(=O)N[C@H]1C[C@@H](c2[nH]nc(C)c2Cl)O[C@@H](C2CCCCC2)C1	0%	-0.03
Nc1ccncc1-n1cnc(-c2cccs2)c1	11%	-1.65

SMILES	% Inhibition	Z score
Cc1ccc(-n2nc3c(N4CCC[C@H](C(=O)NCc5cccnc5)C4)nnc(C)c3c2C)cc1	-5%	0.77
COC1(c2ccccc2)CCN(c2ccncn2)CC1	0%	-0.01
O=C1[C@@H](NCc2cncnc2)CCN1c1ccc(Cl)cc1Cl	-9%	0.89
COc1ccc(C(=O)c2sc(N3CCN(C(=O)c4ccco4)CC3)nc2-c2ccccc2)cc1	-3%	0.33
Cn1nccc1C1CCN(S(=O)(=O)c2ccc3c(c2)CCO3)CC1	-10%	1.74
COCCOCC(=O)Nc1cccc(N)c1C	7%	-1.06
COc1cccc(CN2CCC[C@@]3(CCN(CCC(C)C)C3)C2)c1OC	-11%	1.38
COCCCN(Cc1cnc(-c2cccc(C)c2)nc1)C1CCN(C)CC1	-10%	1.42
COc1ccc(OCCN2CC3(CCCC3)CC2=O)cc1	0%	0.04
Cc1c(CN(CCO)Cc2nccn2C)[nH]c2c(Cl)cccc12	-14%	1.41
O=C(NCCc1ccc(Cl)cc1)c1ccc(CN2CC(=O)N3CCC[C@H]3C2=O)cc1	-19%	3.67
Cc1c(-c2nc([C@H]3CCOC3)no2)nnn1-c1cccc2cccnc12	-12%	1.56
Cc1c(Cl)ccc2sc(N(Cc3ccccn3)C(=O)c3ccccc3Oc3ccccc3)nc12	7%	-0.89
CCOc1cc2cc(c1)C(=O)N(C)CC(=O)N[C@@H]1CN(C(=O)CCc3cccnc3)CC[C@@H]1OCc1cccc(c1)O2	27%	-3.77
COC[C@H](C)NC(=O)c1sc2ncnc(N3CCCCCCC3)c2c1C	18%	-2.37
CCNS(=O)(=O)c1ccc2c(c1)N(Cc1nnnn1C1CC1)CC2	3%	-0.45
C[C@H]1CN(C(=O)c2ccc3ccc(Cl)cc3n2)CCN1	-7%	0.73
COc1ccc(CN2C(=O)COC[C@H]2C(=O)N2CCC(Cc3ccccc3)CC2)cc1	-6%	0.71
C[C@H]1CNCCN1C(=O)CCc1ccc(C(F)F)cc1	-8%	1.06
O=C1CCCc2nn(-c3ccccc3)c(-c3ccc(O)cc3)c21	-17%	2.27
CCC(NCC1CC=CCC1)c1cnn(C)c1 (stereo not given)	-4%	0.55
Cc1cccc(NC(=O)Nc2cccc(CNC(=O)C3CCCC3)c2)c1	1%	-0.14

SMILES	% Inhibition	Z score
Cc1ccc(C(=O)OCCC(N)=O)cc1Cl	0%	0.04
COCC(=O)N(Cc1c(C(C)C)nn(-c2ccccc2)c1Oc1cccc(F)c1)CC1CC1	-4%	0.33
COc1cccc([C@@H](O)CNc2ccc(-n3nc(C)cc3C)cn2)c1	3%	-0.52
COc1ccc(CN2CC[C@@]3(CCCN(C(=O)C(C)C)C3)C2)c(C)c1	-4%	0.46
Cc1cccc(C[C@H](C)NS(=O)(=O)c2cc(C)sc2C)n1	-10%	1.58
Cc1nscc1C(=O)NC1CN(Cc2ccccc2)CC1C (stereo not given)	-10%	1.41
Cc1cc(CN2CCN(c3ccc4cc(Cl)cnc4n3)CC2)on1	-8%	1.02
COc1ccccc1-n1nc(C)c(Cc2ccc(C)cc2)c1O	3%	-0.37
CC(C)c1ccc(NC(=O)CCCC(=O)O)cc1	36%	-1.05
c1cncc(CN(Cc2ccco2)c2ccc3nccnc3n2)c1	-7%	0.84
c1cn2c(n1)CN(c1ncnc3ccsc13)CC2	-14%	1.51
Cc1nn(-c2ccccc2)c(C)c1-c1ccnc(NCC(F)(F)F)n1	-5%	0.65
O=S(=O)(CC1CCCO1)N1CCOCC1c1cccc(F)c1 (stereo not given)	-5%	0.81
O=C(NC1CCOCC1)N1CCO[C@H](c2cc(Cl)cc(Cl)c2)C1	-8%	0.86
COc1c(CNCc2nc3cc(Cl)ccc3s2)c(C)nn1C	9%	-0.84
O=C1NC2(CCN(C(=O)NCc3ccc(F)cc3)CC2)Nc2c(Cl)cccc21	-11%	1.42
CC1CCCC(CNCc2ccncc2)(N(C)C)C1 (stereo not given)	-17%	1.99
Cc1nn(C)c(C)c1CN1CCN(S(C)(=O)=O)c2ccccc2C1	-16%	1.38
N#Cc1cc(F)c(NCCCn2cncn2)c(F)c1	-2%	0.3
Cc1cc(C(=O)Nc2nnc(-c3ccc(S(=O)(=O)N(C)C)cc3)o2)no1	-7%	0.92
FC(F)(F)c1cc(-c2cc[nH]n2)c2nc[nH]c2c1	10%	-1.67
NC(=O)[C@H]1CCCN(Cc2ccc(NCc3ccns3)cc2)C1	-13%	1.52

SMILES	% Inhibition	Z score
CC[C@H]1CCCN(C(=O)Nc2sc(C)nc2C)C1	-11%	1.47
CC(=O)N1CCC[C@H](c2noc(-c3sc4cccc(F)c4c3C)n2)C1	-11%	2.02
Cc1cnn(CC(C)NCC(=O)NC2CCCc3ccccc32)c1 (stereo not given)	-9%	1.43
COc1ccc2oc(CNc3ncc(F)c(N4CCOCC4)n3)nc2c1	-3%	0.4
CCCNC(=O)CCCn1nnc2cc(S(=O)(=O)N3CCCCC3)ccc21	-15%	2.06
Cc1ccc(Cl)cc1NC(=O)CC1(N2Cc3ccccc3C2=O)CCOCC1	-5%	0.78
CC(C)CCNC(=O)N1CCOc2ccc(C(=O)N3CCOCC3)cc2C1	-1%	0.21
CCC(NC(=O)Cn1nc(C)cc1N)[C@H]1C[C@H](O)C1 (stereo not given in full)	-11%	2.15
CCO[C@H]1COCC[C@@H]1NC(=O)c1ccc2c(c1)CCCC2	14%	-1.9
O=C(c1ccn(COc2ccccc2Cl)n1)N1CCOCC1	2%	-0.35
Cc1ccc(-c2nccc(Nc3cccc(C(=O)NCCC4=CCCCC4)c3)n2)cc1	3%	-0.27
O=C(NC1CCN(c2ncnc3c2CCCC3)CC1)c1ccco1	-10%	1.26
CC(=O)N1CCc2nc(-c3ccco3)nc(N3CCCOCC3)c2CC1	0%	-0.02
CCn1ccc(C(=O)N2CCC[C@@]3(CCC(=O)N(Cc4cccnc4)C3)C2)n1	-4%	0.8
CCNC(=O)N(C1CC1)[C@H]1CCOC2(CCN(C(=O)Nc3ccc(OC)cc3)CC2)C1	-12%	1.78
CCC(C)(C)NC(=O)c1ccc(Cl)cc1	1%	-0.2
CN(C(=O)Cc1cc(Cl)ccc1Br)c1cnn(C)c1	-11%	1.77
CC(C)N(CC(F)(F)F)S(=O)(=O)c1cccc2ccncc12	-4%	0.58
C=CCNC(=O)c1snc(-c2ccncc2)c1N	-7%	1.2
